# Experimental data from PubChem BioAssay AID445 (National Center for Advancing Translational Sciences (NCATS), 2006).
# In all, about 110,000 compounds went through this assay and about 40 (0.04%) were called active. The inconclusive results got no clear call from the source; some entries with a clear call stand among them for comparison. The call rests on the fitted dose curve; in most records, active means well fitted curve in the direction sought with a large enough effect in the signal ratio (not every such curve was filed as active); inconclusive means small, poorly fitted or top-dose-only effect, or a change in a side signal; inactive means flat fitted curve, though single readings scatter; the % refers to the signal ratio. Where the call is inconclusive, the potency comes from a doubtful curve fit.
# Test: IkB Signaling;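 on IkBa stabilization activation: 0% = basal untreated cells and 100% = reference inhibitor full response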
# Settings: ABC-DLBCL IkBa-CBG/CBR dual luciferase ratio (green luciferase fused to IkBa over red control in OCI-Ly3 lymphoma cells), 4 h; IkBa stabilization activation: at 57.1 µM (top of the series), scaled: untreated 0%, proteasome inhibitor 100% unless noted
# Procedure, shortened: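 Curves were fitted separately to fusion (green), unfused (red) and ratio luminescence, then classed by r2, magnitude and activity. Cells: OCI-Ly3, 4 h compound plus doxycycline at 37C; 10 uM MG-132 defined full response.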
# Potency means the concentration at half of the fitted maximal effect.
SMILES,IkBa stabilization activation,Potency
COc1ccc(-n2c(/C=C/c3c(C)[nH]c4ccccc34)nc3ccccc3c2=O)cc1,inconclusive: 17.9% [signal inhibitor],
COc1ccccc1C(=O)Nc1ccc(OCc2cc(=O)n3ccc(C)cc3n2)cc1,inconclusive: -0.666% [signal inhibitor],
CC1=C(C(=O)OC(C)C)C(C)C(C(=O)OC(C)C)=C(C)N1,inconclusive: -0.182% [signal inhibitor],
CCOc1ccc(S(=O)(=O)N2CCC(N3CCN(Cc4ccc(C)cc4)C(=O)C3=O)CC2)cc1,inactive: 1.19%,
COc1ccc(CNC(=O)c2cnn(-c3ccc(C)cc3)c2-n2cccc2)cc1OC,inactive: 1.65%,
Cc1ccc(Cl)cc1NC(=O)CSc1nc2c(c(=O)[nH]1)CN(Cc1ccccc1)CC2,inconclusive: 6.51% [signal inhibitor],
CCOC(=O)c1cccc(NC(=O)CSc2nnc(-c3ccoc3C)n2CCOC)c1,inconclusive: 6.35% [signal inhibitor],
Cc1ccc(-c2onc(C)c2C)cc1S(=O)(=O)Nc1ccc(Cl)cn1,inactive: 3.28%,
Cc1ccccc1C(=O)Nc1ccc(C(=O)OCc2cc(=O)n3nc(C(C)C)sc3n2)cc1,inconclusive: 10.3% [signal inhibitor],
CC(=O)O[C@@H]1[C@H]([N+]2(C)CCCCC2)C[C@@H]2[C@@H]3CC[C@@H]4C[C@@H](OC(C)=O)[C@H]([N+]5(C)CCCCC5)C[C@@]4(C)[C@H]3CC[C@]21C,inactive: 1.16%,
COC(=O)c1cccc(Nc2nn3c(=O)c4cc5c(cc4nc3s2)OCO5)c1,inconclusive: 5.51% [signal inhibitor],
C[C@@H](NC(=O)C1(N)CCCC1)C(=O)O,"inactive: 1.45% [at 11.4 µM, scaled: untreated 0%, proteasome inhibitor 100%]",
COc1ccc(-c2[nH]c3ccccc3c2SCCNC(=O)c2ccc(S(=O)(=O)N(C)C)cc2)cc1,inconclusive: 1.12% [signal inhibitor],
CC(C)(CN)CN,"inactive: 0.132% [at 11.4 µM, scaled: untreated 0%, proteasome inhibitor 100%]",
COC(=O)Nc1nc2ccc(Sc3ccccc3)cc2[nH]1,"inconclusive: 7.58% [signal activator] [at 25.6 µM, scaled: untreated 0%, proteasome inhibitor 100%]",
O=C(CSC1=Nc2ccccc2N=C(c2ccc(F)cc2)C1)NCc1ccccc1Cl,inconclusive: 2.49% [signal inhibitor],
Cc1cc(NCCN2CCOCC2)n2ncc(-c3ccccc3)c2n1,inactive: 1.23%,
O=C(Nc1ccncc1)c1ccc2c(c1)OCCO2,inactive: 6.45%,
CCOc1ccc(CNC(=O)c2sc3ncnc(N(C)C4CCCCC4)c3c2C)cc1,inconclusive: -1.12% [signal inhibitor],
NC(=O)c1ccccc1NC(=O)Cn1nc(Cc2cccnc2)c2ccccc2c1=O,inconclusive: 2.15% [signal inhibitor],
COCCN1Cc2cccc(C(=O)Nc3ccc(C)cc3C)c2C1=O,inconclusive: 7.49% [signal inhibitor],
CCN(C(=O)C1CCN(S(=O)(=O)c2ccc3c(c2)CCCN3C(=O)C2CCC2)CC1)c1cccc(C)c1,inconclusive: 5.38% [signal inhibitor],
O=C(Oc1ccccc1)N1CCC2(CC1)CN(c1ncccn1)C2,"inactive: -1.64% [at 11.4 µM, scaled: untreated 0%, proteasome inhibitor 100%]",

SMILES,IkBa stabilization activation,Potency
Cc1c(C(=O)NCc2ccc(N(C)C)cc2)oc2c1-c1nn(Cc3cccc(Cl)c3)cc1CC2,inconclusive: 12.1% [signal inhibitor],
COc1ccc(-c2nc(-c3ccccc3)c(-c3ccccc3)[nH]2)cc1Br,inconclusive: 5.99% [signal inhibitor],
CCCC12CN3CC(CCC)(CN(C1)C3c1c[nH]c3ccccc13)C2=O (stereo not drawn),inconclusive: 1.15% [signal inhibitor],
COc1ccc2c(=O)cc(-c3ccncc3)oc2c1OC,"inconclusive: 2.94% [signal inhibitor] [at 11.4 µM, scaled: untreated 0%, proteasome inhibitor 100%]",
COc1cccc(CNC(=O)c2cnc(N3CCCC3)nc2C)c1,inactive: -0.332%,
COc1ccc(CCNC(=O)c2cc(-c3ccccc3)nc3ccccc23)cc1OC,inconclusive: 5.58% [signal inhibitor],
COc1ncc2nc(-c3cc(F)cc(F)c3)c(=O)n(CCc3ccccc3)c2n1,"inactive: 0.729% [at 11.4 µM, scaled: untreated 0%, proteasome inhibitor 100%]",
COC(=O)c1scc(-c2ccc(C)cc2)c1S(=O)(=O)Nc1cccc(C(F)(F)F)c1,inactive: 0.671%,
CCOC(=O)C1OC1c1ccccc1 (stereo not drawn),inactive: -0.243%,
Cc1nn(CCCC(=O)NCc2ccccc2)c(=O)c2nn(-c3ccccc3)c(C)c12,inconclusive: 0.424% [signal inhibitor],
CCC(=O)N1CCc2cc(S(=O)(=O)NCCC(=O)Nc3ccc(OC)c(Cl)c3)ccc21,inactive: -2.42%,
CC(C)c1nnc(N2C(=O)c3oc4ccccc4c(=O)c3C2c2cccc(O)c2)s1 (stereo not drawn),inconclusive: 11.3% [signal inhibitor],
O=C(CSc1cn(CC(=O)N2CCCCCC2)c2ccccc12)Nc1ccccc1F,inconclusive: 0.95% [signal inhibitor],
CCc1nnc2c(NCc3ccccc3OC)nc3ccccc3n12,inconclusive: 6.34% [signal inhibitor],
COc1ccc(C(=O)c2cn(Cc3ccc(C)cc3)c3cc4c(cc3c2=O)OCO4)cc1,inconclusive: 1.06% [signal inhibitor],
COc1ccc2nc(N3CCCC(O)C3)c(C#N)cc2c1 (stereo not drawn),,"inconclusive: 39.8 µM [signal activator, single point]"
COc1cc(NC(=O)CCS(=O)(=O)c2nc(-c3cccs3)cc(C(F)(F)F)n2)cc(OC)c1OC,,"inconclusive: 5.01 µM [signal inhibitor, single point]"
Cc1c(Cl)cccc1NC(=O)CCn1c(=O)c2cccn2c2ccccc21,inconclusive: -0.998% [signal inhibitor],
COc1ccccc1C(c1nnnn1CCc1ccccc1)N1CCN(c2ccccc2)CC1 (stereo not drawn),inactive: 6.92%,
CCCCCOc1ccc(C(=O)N(Cc2ccco2)C2CCS(=O)(=O)C2)cc1 (stereo not drawn),inactive: 5.15%,
c1ccc2c(c1)oc1c(NCc3ccc4c(c3)OCO4)ncnc12,inconclusive: 3.63% [signal inhibitor],
CC(CNC(=O)C1CCN(Cc2cc3ccccc3n2Cc2ccccc2)CC1)c1ccccc1 (stereo not drawn),inconclusive: -1.96% [signal inhibitor],
Cc1ccc2c(CC(=O)Nc3ccccc3C(F)(F)F)coc2c1C,inconclusive: 4.35% [signal inhibitor],

SMILES,IkBa stabilization activation,Potency
O=C(CCN1C(=O)c2ccccc2C1=O)Nc1ccc(-c2cn3ccsc3n2)cc1,inactive: -0.745%,
CCOc1ccccc1NC(=O)CSc1nccn1-c1ccc(Cl)cc1,inconclusive: 3.4% [signal inhibitor],
O=C(Nc1ccc2c(c1)OCO2)Nc1cnccn1,inactive: -2.41%,
COc1cc2c(cc1OC)C(C)N(C(=O)Cn1ncc3c1-c1ccccc1OC3)CC2 (stereo not drawn),inconclusive: 1.59% [signal inhibitor],
CN1CCN(C(CNC(=O)C(=O)Nc2ccc(F)cc2F)c2ccc3c(c2)OCO3)CC1 (stereo not drawn),inconclusive: 12.9% [signal inhibitor],
O=C(CN1C(=O)C2(SCC(=O)N2c2ccccc2)c2ccccc21)NCc1ccccc1Cl (stereo not drawn),inconclusive: 2.02% [signal inhibitor],
O=C(NC1CCCCC1)c1ccc2c(c1)N(Cc1ccccc1)C(=O)c1ccccc1S2,inconclusive: 2.38% [signal inhibitor],
CCCCNc1nc(Oc2ccc(=O)n(C)n2)nc(N(C)C)n1,inconclusive: 3.13% [signal inhibitor],
Cc1nc2ccc(NC(=O)N3CCOCC3)cc2s1,inactive: -0.969%,
CC(=O)NC(CCS(C)(=O)=O)C(=O)Nc1cccc(C)c1 (stereo not drawn),inactive: 1.92%,
Cc1ccc(-c2nc(CS(=O)CC(=O)N3CCN(c4ccccc4)CC3)c(C)o2)cc1 (stereo not drawn),inconclusive: 1.38% [signal inhibitor],
COc1ccc(-c2noc(-c3ccc(NC4CCCC4)c([N+](=O)[O-])c3)n2)cc1,inactive: 5.82%,
CCN(CC)c1cc(C)c2cc(NC(=O)/C=C/c3ccc(C)cc3)ccc2n1,inconclusive: 5.3% [signal inhibitor],
Cc1ccc(S(=O)(=O)c2c(N)n(/N=C/c3ccco3)c3nc4ccccc4nc23)cc1,inactive: -2.19%,
O=[N+]([O-])c1cc(Cc2cc([N+](=O)[O-])c3cccnc3c2O)c(O)c2ncccc12,,active: 5.01 µM
COc1ccc(Cl)cc1NC(=O)c1cc2c(s1)-c1ccccc1OC2,inconclusive: 4.47% [signal inhibitor],
CS(=O)(=O)N(CC(=O)NCCSc1ccccc1)c1cc(C(F)(F)F)ccc1Cl,inconclusive: 1.46% [signal inhibitor],
COc1ccc(OC)c(NC(=O)CSc2cn(CC(=O)N3CCOCC3)c3ccccc23)c1,inconclusive: -0.0253% [signal inhibitor],
CC(=O)Nc1ccc(S(=O)(=O)Nc2cccc(-c3nc4cc(C)ccc4o3)c2)cc1,inconclusive: -6.69% [signal inhibitor],
Cc1cc(NC(=O)Cc2cccs2)no1,inactive: 1.44%,
COc1cccc(-c2cc(=O)c3ccccc3o2)c1N,inactive,
Cc1ccc2oc(C(=O)N(Cc3ccccc3F)C3CCS(=O)(=O)C3)c(C)c2c1 (stereo not drawn),inactive: -0.644%,
